Test results: PMC10190621
No constants are given. Whether binding was seen depends on the method and setting. For some of these results: Binding seen in cells or lysates may run through a third protein. Some entries that bind do so weakly or less than the wild type. Tags and fused reporters may be left off the sequences shown.

Protein sequences, listed by entry. Tags and fused reporters are not part of them. Lines headed by an entry give the natural chain unless they say otherwise; changes in a name come on top.
UniProt P61960: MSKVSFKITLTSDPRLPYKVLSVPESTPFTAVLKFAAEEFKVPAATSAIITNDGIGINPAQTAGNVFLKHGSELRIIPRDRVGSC
UniProt Q14145: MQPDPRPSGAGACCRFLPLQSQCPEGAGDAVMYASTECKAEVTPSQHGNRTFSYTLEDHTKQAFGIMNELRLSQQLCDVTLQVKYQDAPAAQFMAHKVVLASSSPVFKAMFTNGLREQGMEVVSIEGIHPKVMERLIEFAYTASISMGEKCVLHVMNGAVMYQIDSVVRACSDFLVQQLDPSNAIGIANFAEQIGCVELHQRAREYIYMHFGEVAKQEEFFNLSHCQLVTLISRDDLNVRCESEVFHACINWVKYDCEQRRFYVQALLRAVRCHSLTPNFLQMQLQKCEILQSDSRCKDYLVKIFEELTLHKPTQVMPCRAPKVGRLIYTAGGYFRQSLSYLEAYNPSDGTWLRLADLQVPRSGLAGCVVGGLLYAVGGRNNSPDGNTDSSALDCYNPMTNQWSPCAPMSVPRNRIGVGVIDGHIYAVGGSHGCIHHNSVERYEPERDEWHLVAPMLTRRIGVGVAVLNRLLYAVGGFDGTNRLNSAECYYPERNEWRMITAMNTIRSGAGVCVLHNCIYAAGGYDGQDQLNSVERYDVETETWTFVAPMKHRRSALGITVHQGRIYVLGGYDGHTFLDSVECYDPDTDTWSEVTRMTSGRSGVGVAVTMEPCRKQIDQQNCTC

Assays:
HA-tagged NRF2 = biological target: T1, HA-tagged NRF2 (UniProt Q16236); assay: co-IP; two tagged proteins co-transfected into HEK293T cells; cell lysis buffer with protease inhibitor; anti-Myc, anti-Flag or anti-HA immunomagnetic beads, 4 °C overnight, washed three times; western blot
T1 sequence: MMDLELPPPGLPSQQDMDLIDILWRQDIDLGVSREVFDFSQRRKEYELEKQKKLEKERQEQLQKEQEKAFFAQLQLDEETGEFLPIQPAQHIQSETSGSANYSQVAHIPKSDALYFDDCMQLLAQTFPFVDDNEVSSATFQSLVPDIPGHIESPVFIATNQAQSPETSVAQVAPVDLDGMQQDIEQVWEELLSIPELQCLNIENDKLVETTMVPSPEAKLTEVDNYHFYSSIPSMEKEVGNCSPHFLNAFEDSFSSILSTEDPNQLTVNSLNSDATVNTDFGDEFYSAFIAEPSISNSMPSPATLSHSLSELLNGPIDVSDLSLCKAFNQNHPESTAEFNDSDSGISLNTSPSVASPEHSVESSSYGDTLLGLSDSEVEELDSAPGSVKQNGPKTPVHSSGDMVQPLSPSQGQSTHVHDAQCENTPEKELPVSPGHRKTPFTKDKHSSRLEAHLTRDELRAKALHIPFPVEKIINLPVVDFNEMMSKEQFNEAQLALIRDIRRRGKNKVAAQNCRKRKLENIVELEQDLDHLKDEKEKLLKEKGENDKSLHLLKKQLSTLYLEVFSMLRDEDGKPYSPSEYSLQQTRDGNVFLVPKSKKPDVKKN

[1] = biological target: T2, DDRGK1-Flag truncation, amino acids 1-210 (human) (UniProt Q96HY6); assay: co-IP; one tagged protein transfected into HEK293T cells as bait, endogenous proteins as prey; anti-Myc, anti-HA or anti-Flag immunomagnetic beads, 4 °C overnight; western blot with antibodies to the endogenous proteins
T2 sequence: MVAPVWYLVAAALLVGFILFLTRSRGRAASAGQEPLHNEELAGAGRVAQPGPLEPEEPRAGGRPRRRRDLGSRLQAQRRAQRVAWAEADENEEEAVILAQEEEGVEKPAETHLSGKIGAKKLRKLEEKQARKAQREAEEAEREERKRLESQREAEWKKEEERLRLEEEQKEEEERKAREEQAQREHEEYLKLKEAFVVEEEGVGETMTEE

[2] = biological target: T3, Myc-tagged DDRGK1 (human) (UniProt Q96HY6); assay: as above
T3 sequence: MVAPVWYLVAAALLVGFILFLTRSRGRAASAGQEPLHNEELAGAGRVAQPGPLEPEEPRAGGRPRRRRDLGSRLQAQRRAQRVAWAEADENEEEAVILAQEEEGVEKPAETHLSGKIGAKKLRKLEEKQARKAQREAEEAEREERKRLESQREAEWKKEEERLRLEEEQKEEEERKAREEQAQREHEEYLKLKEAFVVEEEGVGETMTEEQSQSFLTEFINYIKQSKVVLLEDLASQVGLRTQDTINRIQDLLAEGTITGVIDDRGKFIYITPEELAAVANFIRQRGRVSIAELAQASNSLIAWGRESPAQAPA

[3] = biological target: T4, Fc-tagged DDRGK1 (full length) (human) (UniProt Q96HY6); assay: pull-down; Fc pulldown: 10 µg purified Fc or Fc-DDRGK1 on Protein A/G immunomagnetic beads (room temperature 0.5 h), mixed with recombinant NRF2 and KEAP1 proteins at 4 °C overnight, washed three times, immunoblot; both purified
T4 sequence: T3 sequence

[4] = biological target: T5, FLAG-tagged DDRGK1 (human) (UniProt Q96HY6); assay: co-IP; two tagged proteins co-transfected into HEK293T cells; cell lysis buffer with protease inhibitor; anti-Myc, anti-Flag or anti-HA immunomagnetic beads, 4 °C overnight, washed three times; western blot
T5 sequence: T3 sequence

[5] = biological target: T3, Myc-tagged DDRGK1 (human); assay: as above

**Q.** Which binding (HA-tagged NRF2) does the source give for ufm1-HA (from UniProt P61960 1-85) here?
**A.** no binding

**Q.** Which results are given for “endogenous KEAP1 (from UniProt Q14145 1-624)”?
**A.** binding [1]: binds; binding [2]: binds

**Q.** “His-tagged KEAP1 (C-terminal amino acids 312-624, containing the Kelch domain) (from UniProt Q14145 312-624) (domain or fragment)” was tested. Which binding [3] did it give?
**A.** binds

**Q.** With “endogenous NRF2 (from UniProt Q16236 1-605)” as the substance, how does the binding [2] read?
**A.** no binding

**Q.** For “HA-tagged NRF2 (from UniProt Q16236 1-605)”, which binding [4] is on record?
**A.** no binding

**Q.** With “HA-tagged KEAP1 (from UniProt Q14145 1-624)” as the substance, how does the binding [5] read?
**A.** binds
